# Measured values reported in the supplement of paper PMC12217912.
# Some of the results follow. The full chains were built here from the parent and the listed change. Values near 0.05 are background.
# B1: TEV protease; numbered along this chain (parent)
# chain: MGESLFKGPRDYNPISSSICHLTNESDGHTTSLYGIGFGPFIITNKHLFRRNNGTLVVQSLHGVFKVKDTTTLQQHLVDGRDMIIIRMPKDFPPFPQKLKFREPQREERICLVTTNFQTKSMSSMVSDTSCTFPSGDGIFWKHWIQTKDGQCGSPLVSTRDGFIVGIHSASNFTNTNNYFTSVPKNFMELLTNQEAQQWVSGWRLNADSVLWGGHKVFMVKPEEPFQPVKEATQL
# Variants of: B1
# Test: raw area under fraction-flipped curve 0-4 h after induction (AUC4h, not background-subtracted), DNA-recorder readout of cleavage of the substrate (dimensionless); higher = more cleavage of the substrate by the protease variant
# Conditions: temperature: 34 °C; time window: 0-4 h after rhamnose induction
# Description: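 In vivo DNA recorder in E. coli TOP10(DE3) ΔrhaA at 34 °C. Each TEVp single-site mutant (parent TEVp 0) is paired with a single-site variant of the 7-mer TEVs (canonical ENLYFQ|S). The substrate sits between flexible linkers in a Bxb1-sfGFP-TEVs-SsrA fusion, so cleavage stabilises Bxb1 and speeds flipping of a recombination array, read by NGS. The value is the raw area under the fraction-flipped curve over 0-4 h after rhamnose induction (AUC4h), with ≥20 reads per time point. It is not background-subtracted; inactive controls average about 0.047.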
# 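Also: Bxb1 expression induced with 0.2% (w/v) L-rhamnose at OD600 near 0.5, cultures sampled hourly, flipped fraction per protease–substrate barcode pair counted by paired-end Illumina sequencing.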
variant,measurement,value
MGESLFKGPRDYNPISSSICHLTNESDGHSTSLYGIGFGPFIITNKHLFRRNNGTLVVQSLHGVFKVKDTTTLQQHLVDGRDMIIIRMPKDFPPFPQKLKFREPQREERICLVTTNFQTKSMSSMVSDTSCTFPSGDGIFWKHWIQTKDGQCGSPLVSTRDGFIVGIHSASNFTNTNNYFTSVPKNFMELLTNQEAQQWVSGWRLNADSVLWGGHKVFMVKPEEPFQPVKEATQL [T30S],area with substrate ENAYFQS,0.057
same,area with substrate ENCYFQS,0.0504
same,area with substrate ENDYFQS,0.0561
same,area with substrate ENEYFQS,0.0622
same,area with substrate ENFYFQS,0.0559
same,area with substrate ENGYFQS,0.0574
same,area with substrate ENHYFQS,0.0668
same,area with substrate ENIYFQS,0.13
same,area with substrate ENKYFQS,0.0516
same,area with substrate ENMYFQS,0.103
same,area with substrate ENNYFQS,0.0676
same,area with substrate ENPYFQS,0.0532
same,area with substrate ENQYFQS,0.0856
same,area with substrate ENSYFQS,0.0667
same,area with substrate ENTYFQS,0.0601
same,area with substrate ENVYFQS,0.0793
same,area with substrate ENWYFQS,0.0374
same,area with substrate ENYYFQS,0.0607
MGESLFKGPRDYNPISSSICHLTNESDGHTESLYGIGFGPFIITNKHLFRRNNGTLVVQSLHGVFKVKDTTTLQQHLVDGRDMIIIRMPKDFPPFPQKLKFREPQREERICLVTTNFQTKSMSSMVSDTSCTFPSGDGIFWKHWIQTKDGQCGSPLVSTRDGFIVGIHSASNFTNTNNYFTSVPKNFMELLTNQEAQQWVSGWRLNADSVLWGGHKVFMVKPEEPFQPVKEATQL [T31E],area with substrate ENAYFQS,0.0573
same,area with substrate ENCYFQS,0.0062
same,area with substrate ENDYFQS,0.0602
same,area with substrate ENEYFQS,0.0618
same,area with substrate ENFYFQS,0.0667
same,area with substrate ENGYFQS,0.0719
same,area with substrate ENHYFQS,0.0633
same,area with substrate ENIYFQS,0.0805
same,area with substrate ENKYFQS,0.0597
same,area with substrate ENMYFQS,0.0984
same,area with substrate ENNYFQS,0.0573
same,area with substrate ENQYFQS,0.0573
same,area with substrate ENRYFQS,0.0656
same,area with substrate ENSYFQS,0.0601
same,area with substrate ENTYFQS,0.0851
same,area with substrate ENVYFQS,0.0716
same,area with substrate ENWYFQS,0.0363
MGESLFKGPRDYNPISSSICHLTNESDGHTTALYGIGFGPFIITNKHLFRRNNGTLVVQSLHGVFKVKDTTTLQQHLVDGRDMIIIRMPKDFPPFPQKLKFREPQREERICLVTTNFQTKSMSSMVSDTSCTFPSGDGIFWKHWIQTKDGQCGSPLVSTRDGFIVGIHSASNFTNTNNYFTSVPKNFMELLTNQEAQQWVSGWRLNADSVLWGGHKVFMVKPEEPFQPVKEATQL [S32A],area with substrate ENAYFQS,0.0724
same,area with substrate ENCYFQS,0.0717
same,area with substrate ENDYFQS,0.0453
same,area with substrate ENEYFQS,0.051
same,area with substrate ENFYFQS,0.0597
same,area with substrate ENHYFQS,0.0672
same,area with substrate ENIYFQS,0.111
same,area with substrate ENKYFQS,0.0686
same,area with substrate ENNYFQS,0.0624
same,area with substrate ENQYFQS,0.0683
same,area with substrate ENSYFQS,0.107
same,area with substrate ENTYFQS,0.08
same,area with substrate ENVYFQS,0.0682
same,area with substrate ENWYFQS,0.0605
same,area with substrate ENYYFQS,0.0518
MGESLFKGPRDYNPISSSICHLTNESDGHTTDLYGIGFGPFIITNKHLFRRNNGTLVVQSLHGVFKVKDTTTLQQHLVDGRDMIIIRMPKDFPPFPQKLKFREPQREERICLVTTNFQTKSMSSMVSDTSCTFPSGDGIFWKHWIQTKDGQCGSPLVSTRDGFIVGIHSASNFTNTNNYFTSVPKNFMELLTNQEAQQWVSGWRLNADSVLWGGHKVFMVKPEEPFQPVKEATQL [S32D],area with substrate ENAYFQS,0.0542
same,area with substrate ENCYFQS,0.0568
same,area with substrate ENDYFQS,0.0594
same,area with substrate ENFYFQS,0.056
same,area with substrate ENIYFQS,0.0839
same,area with substrate ENKYFQS,0.056
same,area with substrate ENNYFQS,0.0529
same,area with substrate ENPYFQS,0.0568
same,area with substrate ENQYFQS,0.0606
same,area with substrate ENRYFQS,0.0576
same,area with substrate ENSYFQS,0.0622
same,area with substrate ENTYFQS,0.0565
same,area with substrate ENVYFQS,0.0643
same,area with substrate ENYYFQS,0.0603
MGESLFKGPRDYNPISSSICHLTNESDGHTTGLYGIGFGPFIITNKHLFRRNNGTLVVQSLHGVFKVKDTTTLQQHLVDGRDMIIIRMPKDFPPFPQKLKFREPQREERICLVTTNFQTKSMSSMVSDTSCTFPSGDGIFWKHWIQTKDGQCGSPLVSTRDGFIVGIHSASNFTNTNNYFTSVPKNFMELLTNQEAQQWVSGWRLNADSVLWGGHKVFMVKPEEPFQPVKEATQL [S32G],area with substrate ENAYFQS,0.0537
same,area with substrate ENCYFQS,0.0634
same,area with substrate ENDYFQS,0.0578
same,area with substrate ENEYFQS,0.0549
same,area with substrate ENFYFQS,0.0404
same,area with substrate ENMYFQS,0.0602
same,area with substrate ENNYFQS,0.0793
same,area with substrate ENQYFQS,0.0646
same,area with substrate ENRYFQS,0.05
same,area with substrate ENSYFQS,0.0541
same,area with substrate ENTYFQS,0.0537
same,area with substrate ENVYFQS,0.0688
same,area with substrate ENWYFQS,0.0566
same,area with substrate ENYYFQS,0.0368
MGESLFKGPRDYNPISSSICHLTNESDGHTTLLYGIGFGPFIITNKHLFRRNNGTLVVQSLHGVFKVKDTTTLQQHLVDGRDMIIIRMPKDFPPFPQKLKFREPQREERICLVTTNFQTKSMSSMVSDTSCTFPSGDGIFWKHWIQTKDGQCGSPLVSTRDGFIVGIHSASNFTNTNNYFTSVPKNFMELLTNQEAQQWVSGWRLNADSVLWGGHKVFMVKPEEPFQPVKEATQL [S32L],area with substrate ENAYFQS,0.0568
same,area with substrate ENCYFQS,0.0598
same,area with substrate ENDYFQS,0.0593
same,area with substrate ENEYFQS,0.0424
same,area with substrate ENFYFQS,0.0559
same,area with substrate ENHYFQS,0.0523
same,area with substrate ENIYFQS,0.12
same,area with substrate ENKYFQS,0.0906
same,area with substrate ENNYFQS,0.0681
same,area with substrate ENPYFQS,0.0515
same,area with substrate ENSYFQS,0.0623
same,area with substrate ENTYFQS,0.0472
same,area with substrate ENVYFQS,0.0826
same,area with substrate ENYYFQS,0.0508
MGESLFKGPRDYNPISSSICHLTNESDGHTTMLYGIGFGPFIITNKHLFRRNNGTLVVQSLHGVFKVKDTTTLQQHLVDGRDMIIIRMPKDFPPFPQKLKFREPQREERICLVTTNFQTKSMSSMVSDTSCTFPSGDGIFWKHWIQTKDGQCGSPLVSTRDGFIVGIHSASNFTNTNNYFTSVPKNFMELLTNQEAQQWVSGWRLNADSVLWGGHKVFMVKPEEPFQPVKEATQL [S32M],area with substrate ENAYFQS,0.0924
same,area with substrate ENCYFQS,0.0719
same,area with substrate ENDYFQS,0.0665
same,area with substrate ENEYFQS,0.0678
same,area with substrate ENNYFQS,0.073
same,area with substrate ENPYFQS,0.0588
same,area with substrate ENQYFQS,0.0467
same,area with substrate ENSYFQS,0.0443
same,area with substrate ENTYFQS,0.0621
same,area with substrate ENYYFQS,0.0544
MGESLFKGPRDYNPISSSICHLTNESDGHTTPLYGIGFGPFIITNKHLFRRNNGTLVVQSLHGVFKVKDTTTLQQHLVDGRDMIIIRMPKDFPPFPQKLKFREPQREERICLVTTNFQTKSMSSMVSDTSCTFPSGDGIFWKHWIQTKDGQCGSPLVSTRDGFIVGIHSASNFTNTNNYFTSVPKNFMELLTNQEAQQWVSGWRLNADSVLWGGHKVFMVKPEEPFQPVKEATQL [S32P],area with substrate ENAYFQS,0.0652
same,area with substrate ENCYFQS,0.0557
same,area with substrate ENDYFQS,0.0608
same,area with substrate ENEYFQS,0.0571
same,area with substrate ENFYFQS,0.0564
same,area with substrate ENHYFQS,0.0498
same,area with substrate ENKYFQS,0.0543
same,area with substrate ENMYFQS,0.0701
same,area with substrate ENNYFQS,0.0554
same,area with substrate ENPYFQS,0.0488
same,area with substrate ENQYFQS,0.0542
same,area with substrate ENSYFQS,0.0593
same,area with substrate ENTYFQS,0.0632
same,area with substrate ENVYFQS,0.0589
same,area with substrate ENYYFQS,0.0525
MGESLFKGPRDYNPISSSICHLTNESDGHTTQLYGIGFGPFIITNKHLFRRNNGTLVVQSLHGVFKVKDTTTLQQHLVDGRDMIIIRMPKDFPPFPQKLKFREPQREERICLVTTNFQTKSMSSMVSDTSCTFPSGDGIFWKHWIQTKDGQCGSPLVSTRDGFIVGIHSASNFTNTNNYFTSVPKNFMELLTNQEAQQWVSGWRLNADSVLWGGHKVFMVKPEEPFQPVKEATQL [S32Q],area with substrate ENAYFQS,0.0477
same,area with substrate ENCYFQS,0.0615
same,area with substrate ENDYFQS,0.0549
same,area with substrate ENEYFQS,0.0559
same,area with substrate ENFYFQS,0.0463
same,area with substrate ENGYFQS,0.0625
same,area with substrate ENHYFQS,0.0625
same,area with substrate ENIYFQS,0.0782
same,area with substrate ENKYFQS,0.0468
same,area with substrate ENMYFQS,0.101
same,area with substrate ENPYFQS,0.0698
same,area with substrate ENQYFQS,0.0609
same,area with substrate ENRYFQS,0.0758
same,area with substrate ENTYFQS,0.0525
same,area with substrate ENVYFQS,0.0154
